This passage reports switch fluorescence ratio results from the supplement of paper PMC10126150.

The data set deals with ATP. The data set is described as follows: switch fluorescence ratio, 500 uM ATP over buffer (Cy3 cluster intensity, sum of 5 cycles each) (fold (ratio)); higher = stronger signal-on switching upon ATP binding; sequences stand for … in TCGTCGGCAGCGTCAGATGTGTATAAGAGACAGTTTTTTTTTTTTTTTTTTTTTTTTT…TC. The settings on record: aptamer strand: ATP DNA aptamer (quencher-CACCTGGGGGAGTATTGCGGAGGAAGG + anchor), 100 nM annealed; ATP concentration: 500 uM; one replicate. In outline: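 Cy3-labelled switching-strand clusters on a modified Illumina MiSeq flow-cell were annealed to 100 nM quencher-labelled ATP aptamer and imaged first in selection buffer, then after 15 min with 500 uM ATP at 22 °C. NaOH stripping and re-annealing separated each of five buffer/ATP cycles, and clusters outside 100-1000 RFU were excluded. The fluorescence ratio sums target-cycle Cy3 intensity over buffer-cycle Cy3 intensity per cluster and averages it per switch-domain sequence.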

Values marked as one replicate rest on one cluster of the flow cell; about a third of the high ones do not repeat.
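Further: ATP exposure 15 min at 22 °C before imaging.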

On to ATCGTACCTA, for which the switch fluorescence ratio is 1.17.

For GAGGGCCGAG, the switch fluorescence ratio turned out to be 0.954.

AAATATAGTA: the switch fluorescence ratio turned out to be 0.971.

Regarding ACATGCGGCG, the switch fluorescence ratio was determined as 1.07.

On to AAATTGACGA, for which the switch fluorescence ratio was 1.05.

Regarding TAAGGTGTCG, the switch fluorescence ratio stood at 1.05.

With AGGTAGATGA, the switch fluorescence ratio came out at 1.08.

Take GGATTCGTTA: the switch fluorescence ratio is 1.02.

As for TTTTCGCAAG, the switch fluorescence ratio was 3.56.

Turning to GGTCTATAGA, the switch fluorescence ratio was 1.03.

On to GGTTCGGAGA, for which the switch fluorescence ratio was 0.976.

In the case of GGTTGTTTG, the switch fluorescence ratio worked out at 0.957.

As for GCGTCGCCTA, the switch fluorescence ratio amounted to 0.917.

CTCTCGACGA: the switch fluorescence ratio is 1.06.

For GGAGGTTTGC, the switch fluorescence ratio came out at 1.

In the case of TGCAGAATTC, the switch fluorescence ratio amounted to 1.23.

On to CGGACCGGTC, for which the switch fluorescence ratio worked out at 1.

For GGATGAAGGT, the switch fluorescence ratio was 0.961.

GTCATAAGAA: the switch fluorescence ratio stood at 1.

TGCTGAATTT: the switch fluorescence ratio turned out to be 1.02.

With GATAAACCGT, the switch fluorescence ratio worked out at 1.08.

On to CTCGTTGGCC, for which the switch fluorescence ratio is 1.06.

Consider GTGGTTGGAC, for which the switch fluorescence ratio was determined as 1.02.

As for ACAAGGCCTC, the switch fluorescence ratio is 1.

Regarding GGTCAGTTAC, the switch fluorescence ratio was determined as 1.09.

Turning to CAGAGTCTGA, the switch fluorescence ratio is 1.01.

TGAGCATTTG: the switch fluorescence ratio was 1.01.

As to AGTTTCA, the switch fluorescence ratio was 1.

TTCGTGAAAC: the switch fluorescence ratio was 1.01.

Take CCGCGCCTGT: the switch fluorescence ratio came to 1.22.

For the sequence ATTGGCTGCG, the switch fluorescence ratio worked out at 0.98.

For the sequence GAACTTTT, the switch fluorescence ratio was 0.992.

Take TACGTCAAGC: the switch fluorescence ratio was found to be 1.39.

In the case of GACAGCGGAA, the switch fluorescence ratio is 1.05.

In the case of CAGTCGTA, the switch fluorescence ratio stood at 1.08.

On to GACATGTTCA, for which the switch fluorescence ratio worked out at 1.04.

Consider GTGGACGCAC, for which the switch fluorescence ratio was found to be 1.21.

As to TCGATGTACC, the switch fluorescence ratio turned out to be 1.13.

Take AGAACACGCT: the switch fluorescence ratio was 0.978.

As for CACCTTGCGA, the switch fluorescence ratio came out at 1.44.

TCCGAAGACA: the switch fluorescence ratio was 2.75.

Consider GTAAATAGGG, for which the switch fluorescence ratio came to 0.977.

Take TTCATGTGA: the switch fluorescence ratio turned out to be 0.992.

Consider CAACATTTAC, for which the switch fluorescence ratio was determined as 1.11.

In the case of TAGCCGGGG, the switch fluorescence ratio worked out at 0.996.

With TAACGCTATG, the switch fluorescence ratio came to 1.05.

For the sequence GTTCCAGCGC, the switch fluorescence ratio turned out to be 1.1.

With TCCTTCTCGG, the switch fluorescence ratio amounted to 1.08.

As to GGTTGACAC, the switch fluorescence ratio amounted to 1.02.

Consider GAGGGATAAC, for which the switch fluorescence ratio is 1.04.

Consider GAATTATGGG, for which the switch fluorescence ratio came out at 1.1.

With GGTGGAGTTA, the switch fluorescence ratio is 1.03.

For ATTAAAAGGC, the switch fluorescence ratio amounted to 0.989.

GATTGAGTCA: the switch fluorescence ratio turned out to be 0.958.

With CCCTGCTCTG, the switch fluorescence ratio came out at 1.01.

As to ACGAAGTGGG, the switch fluorescence ratio was found to be 0.964.

In the case of GTCGCAGTTG, the switch fluorescence ratio was determined as 1.03.

With AGTGTATGTC, the switch fluorescence ratio was determined as 0.99.

On to AGGAGAATGA, for which the switch fluorescence ratio worked out at 1.02.

In the case of AAGCGAATAA, the switch fluorescence ratio was 1.29.

As for TCAAAGAAGG, the switch fluorescence ratio was 1.01.

On to TCATGCGGT, for which the switch fluorescence ratio is 0.96.

For the sequence GCGTCGTGTA, the switch fluorescence ratio was found to be 0.947.

With AAGGTCTTGT, the switch fluorescence ratio is 1.01.

On to CTAACGCTCG, for which the switch fluorescence ratio is 0.987.

As for GGTTCCGCCT, the switch fluorescence ratio was determined as 1.08.

TTGGCAGATA: the switch fluorescence ratio stood at 0.993.

Consider TGTTGCCAGG, for which the switch fluorescence ratio amounted to 1.02.

Turning to TAGCTCATGC, the switch fluorescence ratio came to 1.

For GCTAGATCGG, the switch fluorescence ratio is 0.977.

For the sequence GGCAGCCCAT, the switch fluorescence ratio was found to be 1.01.

Consider ATTCTTATCC, for which the switch fluorescence ratio worked out at 1.08.

For AATTTCCGA, the switch fluorescence ratio stood at 1.07.

Regarding CGGTACTTAA, the switch fluorescence ratio was 1.03.

For the sequence ATGTAATAAC, the switch fluorescence ratio is 1.01.

As to AAATACCGCG, the switch fluorescence ratio was 1.35.

With ACTTTTTAAA, the switch fluorescence ratio amounted to 1.03.

For AATCACGTCC, the switch fluorescence ratio is 1.11.

On to GCGGGCGCGC, for which the switch fluorescence ratio came to 0.996.

Consider TATACCCTCT, for which the switch fluorescence ratio worked out at 0.988.

With AAAGCATTTC, the switch fluorescence ratio was 1.21.

With GAATCGAGTG, the switch fluorescence ratio was 0.952.

For GTTTGCCAGT, the switch fluorescence ratio is 1.03.

TCTATCCATT: the switch fluorescence ratio is 1.03.

As to TATTTACACG, the switch fluorescence ratio turned out to be 1.05.

On to TCTTTTCCTC, for which the switch fluorescence ratio turned out to be 0.967.

For TGGACATAGA, the switch fluorescence ratio turned out to be 1.01.

For the sequence CTCCATAAGT, the switch fluorescence ratio turned out to be 1.03.

On to GGATGGACTT, for which the switch fluorescence ratio was found to be 1.03.

Regarding TACTAAGTGC, the switch fluorescence ratio was found to be 1.04.

Consider GGGATTTGAC, for which the switch fluorescence ratio worked out at 1.01.

As for AGCTACTGTG, the switch fluorescence ratio was found to be 0.98.

As for GTTGGGAACA, the switch fluorescence ratio stood at 0.966.

For ATGTCAACCG, the switch fluorescence ratio was 1.03.

Consider ACGGGTGGG, for which the switch fluorescence ratio was 1.07.

Consider TAAGCCCTAT, for which the switch fluorescence ratio amounted to 0.989.

For the sequence CGACGGCAGG, the switch fluorescence ratio came to 1.01.

As to TCATTATGC, the switch fluorescence ratio came out at 0.932.

As for GTCTTAATTT, the switch fluorescence ratio stood at 1.04.

In the case of TTGTGAGCAT, the switch fluorescence ratio was 1.04.

AGAAAAGAGA: the switch fluorescence ratio is 1.02.

In the case of TTATCCGGTA, the switch fluorescence ratio was found to be 0.984.

Regarding GGAAGAGATT, the switch fluorescence ratio came to 1.02.

ATATTCACG: the switch fluorescence ratio is 1.04.

For the sequence CGGGTAGATC, the switch fluorescence ratio was 1.05.

For the sequence ATATATATC, the switch fluorescence ratio was found to be 1.03.

As for CCCATCGGCC, the switch fluorescence ratio came to 1.01.

On to GGAATTCCGG, for which the switch fluorescence ratio was determined as 1.02.

Take CGGGCGATTG: the switch fluorescence ratio came out at 0.968.

As to GACACCCAT, the switch fluorescence ratio was 1.17.

Consider ACTTTCCTGC, for which the switch fluorescence ratio was determined as 1.33.

ATAAACGGAT: the switch fluorescence ratio was determined as 1.01.

With AGGCTGTCGT, the switch fluorescence ratio was 0.975.

For the sequence GAGTCACGCG, the switch fluorescence ratio was 1.03.

As to GTACGACACC, the switch fluorescence ratio stood at 1.8.

Regarding CCTTCATATT, the switch fluorescence ratio turned out to be 2.14.

With GCTCAAACCC, the switch fluorescence ratio is 0.997.

For AGCTGTAGGA, the switch fluorescence ratio stood at 1.

Consider CAACTCAAGA, for which the switch fluorescence ratio came out at 1.08.

Take CAGTGAGAGG: the switch fluorescence ratio was 0.952.
